Results as given in PubChem BioAssay AID488969 (Vanderbilt High Throughput Screening Facility, 2010).
In all, about 110,000 compounds were measured (“z-score”: median about -0.1, highest 2% from about 2 on). This is one part of the list. Active and inactive are the calls of the source.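 Rule for the calls: active = z-score in the third read window above 3 or below -3; inactive = the rest.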

target: Metabotropic glutamate receptor 8 (Rattus norvegicus) (UniProt P70579); test: mGluR8 Gi/Go-coupled signaling modulation – cell-based, rat, thallium flux, HTS, primary screen (AID 488969); settings: HEK293 rat mGluR8, GIRK (G protein-gated inwardly rectifying potassium channel) thallium flux, FluoZin2; at 10 µM; stronger effect = higher value; submaximal glutamate (EC20) added with thallium
UniProt P70579, sequence (P70579 whole entry, looked up): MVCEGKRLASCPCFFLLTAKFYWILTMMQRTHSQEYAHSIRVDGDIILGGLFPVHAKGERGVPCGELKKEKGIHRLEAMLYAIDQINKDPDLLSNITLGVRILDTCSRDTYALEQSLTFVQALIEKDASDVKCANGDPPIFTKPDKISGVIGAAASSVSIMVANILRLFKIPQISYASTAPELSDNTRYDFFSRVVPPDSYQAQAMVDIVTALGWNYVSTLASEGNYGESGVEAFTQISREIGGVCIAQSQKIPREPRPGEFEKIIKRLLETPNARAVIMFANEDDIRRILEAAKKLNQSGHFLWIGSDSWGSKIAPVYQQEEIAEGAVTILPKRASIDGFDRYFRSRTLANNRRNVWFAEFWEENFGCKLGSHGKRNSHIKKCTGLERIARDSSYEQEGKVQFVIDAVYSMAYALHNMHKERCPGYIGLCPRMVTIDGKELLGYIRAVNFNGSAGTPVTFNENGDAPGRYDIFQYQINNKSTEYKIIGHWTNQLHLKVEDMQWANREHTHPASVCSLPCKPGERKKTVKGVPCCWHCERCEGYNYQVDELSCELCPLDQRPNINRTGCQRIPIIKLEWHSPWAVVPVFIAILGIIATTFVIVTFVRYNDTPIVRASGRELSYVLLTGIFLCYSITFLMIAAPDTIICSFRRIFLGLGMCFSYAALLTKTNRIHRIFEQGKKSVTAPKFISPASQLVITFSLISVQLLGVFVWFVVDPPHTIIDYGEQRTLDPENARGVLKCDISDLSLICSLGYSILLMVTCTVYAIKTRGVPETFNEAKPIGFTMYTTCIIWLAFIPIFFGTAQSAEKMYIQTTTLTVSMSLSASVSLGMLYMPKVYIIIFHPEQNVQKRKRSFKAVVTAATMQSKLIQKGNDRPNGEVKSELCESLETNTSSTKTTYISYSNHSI

**Q.** With `CC(=O)Nc1ccc(N2CCN(Cc3ccccc3F)CC2)cc1` as the molecule, how does the z-score read?
**A.** -0.196

**Q.** How did the z-score turn out when `CCSCCNC(=O)c1cc(-n2cnnc2)ccc1Cl` was run?
**A.** -0.0565

**Q.** Which z-score does the source give for `Cc1ccc(C)c(Cn2c(CO)nc3ccccc32)c1` here?
**A.** -0.259

**Q.** With `O=c1c(-c2ccnn2-c2cccc(Cl)c2)cnc2n1CCS2` as the molecule, how does the z-score read?
**A.** 0.552

**Q.** For `CCOc1ccc(-n2cnnn2)cc1S(=O)(=O)NCCc1ccc(OC)c(OC)c1`, which z-score is on record?
**A.** 0.0271

**Q.** `O=C(CSc1ccccc1)Nc1nc2ccccc2[nH]1` was tested. Which z-score did it give?
**A.** -0.269

**Q.** Which z-score does the source give for `COCc1nnc(NC(=O)c2ccc(S(=O)(=O)N(C)C3CCCCC3)cc2)o1` here?
**A.** -0.626

**Q.** With `COC(=O)C1=CN(CCCN2CCCC2=O)C=C(C(=O)OC)C1c1ccccc1C(F)(F)F` as the molecule, how does the z-score read?
**A.** 0.428

**Q.** For `CC(C)n1cc(C(=O)c2cc(Br)ccc2O)cc(C#N)c1=O`, which z-score is on record?
**A.** -0.207

**Q.** With `CCOC(=O)N1CCN(C(=O)c2ccc(CNS(=O)(=O)c3ccc(OC)cc3)cc2)CC1` as the molecule, how does the z-score read?
**A.** -0.593

**Q.** Which z-score does the source give for `COc1ccc(NC(=S)N2CCN(C/C=C/c3ccccc3)CC2)cc1` here?
**A.** -0.821

**Q.** `COC(=O)c1ccccc1NC(=O)Cn1c(CCC(=O)O)ccc1-c1cccs1` was tested. Which z-score did it give?
**A.** 0.0362

**Q.** For `Cc1ccc2c(c1)c1c3n2CCN(C(=O)Cn2c(-c4ccccc4)noc2=O)C3CCC1` (stereo not given), which z-score is on record?
**A.** -0.365

**Q.** Which z-score does the source give for `CCC(CC)C(=O)Nc1cccc(S(=O)(=O)c2cccc(NC(=O)C(CC)CC)c2)c1` here?
**A.** -0.161

**Q.** With `COc1ccc(NC(=O)C(=O)N/N=C/c2cccnc2)c(OC)c1` as the molecule, how does the z-score read?
**A.** -0.23

**Q.** With `CCOc1cc(C2C(C(=O)OC)=CN(C3CCCC3)C=C2C(=O)OC)cc(Br)c1O` as the molecule, how does the z-score read?
**A.** 0.183

**Q.** With `CCCOc1ccccc1NC(=O)c1ccc(N)cc1` as the molecule, how does the z-score read?
**A.** -0.341

**Q.** With `Cc1cccc(-n2c(SCc3cc(=O)n4ccsc4n3)nc3ccccc3c2=O)c1` as the molecule, how does the z-score read?
**A.** -0.276

**Q.** With `Cc1ccc(C)c(NC(=O)CS(=O)(=O)c2cn(C)c3ccccc23)c1` as the molecule, how does the z-score read?
**A.** 0.61

**Q.** `O=C(CS(=O)(=O)Cc1ccccc1)NCC1CCCO1` (stereo not given) was tested. Which z-score did it give?
**A.** -0.164

**Q.** How did the z-score turn out when `Cc1ccccc1CSc1nc2ccccc2c(=O)[nH]1` was run?
**A.** -0.246

**Q.** With `CN1CCN(C(=O)/C=C/c2ccc([N+](=O)[O-])cc2)CC1` as the molecule, how does the z-score read?
**A.** -0.07

**Q.** Which z-score does the source give for `CCOc1ncccc1C(=O)OCc1c(Cl)cccc1Cl` here?
**A.** -0.0658

**Q.** For `O=C(Oc1ccc(-c2cnc3ccccc3n2)cc1)c1cccc([N+](=O)[O-])c1`, which z-score is on record?
**A.** -0.131

**Q.** `CCc1ccccc1NC(=O)CN(C)S(=O)(=O)c1ccc2c(c1)c(=O)n(C)c(=O)n2C` was tested. Which z-score did it give?
**A.** -0.094

**Q.** For `COc1ccc(OCCN2CCN(C3CC(=O)N(CCC(C)C)C3=O)CC2)cc1` (stereo not given), which z-score is on record?
**A.** -0.363

**Q.** `COCCCN(C(=S)Nc1ccc(C)cc1Cl)C(C)c1ccncc1` (stereo not given) was tested. Which z-score did it give?
**A.** 0.722

**Q.** For `CCCSc1nnc(-c2cnn(-c3ccccc3)c2-n2cccc2)n1C`, which z-score is on record?
**A.** -0.0552

**Q.** With `COc1ccc(NC(=S)NCCCN2CCN(C3CCCCC3)CC2)cc1` as the molecule, how does the z-score read?
**A.** 0.036

**Q.** `CCCc1c(C(=O)OCC)[nH]c2c1C(=O)CCC2` was tested. Which z-score did it give?
**A.** -0.0909

**Q.** Which z-score does the source give for `CCSc1nnc([C@H](Cc2c[nH]c3ccccc23)NC(=O)OC(C)(C)C)o1` here?
**A.** -0.445

**Q.** Which z-score does the source give for `COc1ccc(OC)c(NC(=O)c2ccc(NS(=O)(=O)c3c(C)noc3C)cc2)c1` here?
**A.** 0.771

**Q.** For `CCOc1ccc(NC(=O)COC(=O)Cc2ccc(S(=O)(=O)N3CCOCC3)s2)cc1`, which z-score is on record?
**A.** -0.587

**Q.** How did the z-score turn out when `O=C(CN1CCOCC1)NCC12CC3CC(CC(C3)C1)C2` was run?
**A.** 0.764

**Q.** For `COc1ccc(Oc2nc(C)cc(C)c2C#N)cc1`, which z-score is on record?
**A.** 0.658

**Q.** `Cc1nn(CC(=O)Nc2nnc(CC(=O)N3CCCC3)s2)c(=O)c2ccccc12` was tested. Which z-score did it give?
**A.** 0.857

**Q.** `CCCOc1ccc(-c2csc(NC(=O)CN3C(=O)CCC3=O)n2)cc1` was tested. Which z-score did it give?
**A.** -0.00662

**Q.** With `Clc1ccc(CCNc2nc3ccccc3n3nnnc23)cc1` as the molecule, how does the z-score read?
**A.** -0.195

**Q.** For `COC(=O)c1ccc(NC(=O)C(C)Oc2ccccc2)cc1` (stereo not given), which z-score is on record?
**A.** 0.0469

**Q.** How did the z-score turn out when `CC1CCCCN1CC(=O)Nc1ccc(Oc2ccccc2)cc1` (stereo not given) was run?
**A.** active: 3.58

**Q.** `CCCn1c(SCC(=O)O)nc2ccccc21` was tested. Which z-score did it give?
**A.** -0.154

**Q.** For `Cc1c(Cl)cccc1NC(=S)NC1CC1`, which z-score is on record?
**A.** 0.237

**Q.** Which z-score does the source give for `Cc1c(-n2c(=S)[nH]c3ccccc3c2=O)c(=O)n(-c2ccccc2)n1C` here?
**A.** 0.153

**Q.** Which z-score does the source give for `Cc1cc(CSc2ccccc2)ccc1NC(=O)COc1ccccc1C` here?
**A.** -0.222

**Q.** Which z-score does the source give for `CCOc1ccc(Br)cc1S(=O)(=O)N1CCCC1` here?
**A.** 0.314

**Q.** Which z-score does the source give for `CC(C)(C)c1nnc(N/N=C/c2cc(Br)ccc2O)n(N)c1=O` here?
**A.** 0.123

**Q.** For `Cc1ccccc1NS(=O)(=O)c1ccc2[nH]cc(C(=O)N(C)Cc3ccco3)c(=O)c2c1`, which z-score is on record?
**A.** 0.282

**Q.** How did the z-score turn out when `CC(=O)c1ccc(NC(=O)Nc2ccc(NS(=O)(=O)c3ccc(C)cc3)cc2)cc1` was run?
**A.** -0.151

**Q.** Which z-score does the source give for `CCOC(=O)c1cc(-c2nnc(-c3ccc(Cl)cc3)o2)c(C)nc1C` here?
**A.** -0.0573

**Q.** With `CCCC(=O)Nc1nc2c(c(=O)[nH]1)CCCC2` as the molecule, how does the z-score read?
**A.** -0.142

**Q.** How did the z-score turn out when `CCSc1nc(N)c2c3c(sc2n1)CCC3` was run?
**A.** -0.615

**Q.** For `Cc1cccc2sc(NC(=O)[C@@H]3CCCN3C(=O)c3cccs3)nc12`, which z-score is on record?
**A.** 0.0455

**Q.** With `CCCCNC(=S)NNC(=O)c1csc(CC)c1` as the molecule, how does the z-score read?
**A.** -0.0512

**Q.** For `Cc1cccc(N(C)C(=O)c2coc(=O)c3ccccc23)c1`, which z-score is on record?
**A.** -0.042

**Q.** How did the z-score turn out when `Cc1c(OCc2ccc(C(=O)O)o2)ccc2c3c(c(=O)oc12)CCC3` was run?
**A.** -0.283

**Q.** Which z-score does the source give for `Cc1c(N=Cc2ccc(Br)s2)cccc1[N+](=O)[O-]` here?
**A.** 0.237

**Q.** With `NS(=O)(=O)c1ccc(CNC(=S)NCc2ccc(Cl)cc2)cc1` as the molecule, how does the z-score read?
**A.** -0.18

**Q.** Which z-score does the source give for `CCOC(=O)c1ccccc1NC(=O)CSc1nnc(C(C)C)n1CC` here?
**A.** -0.379

**Q.** Which z-score does the source give for `CCOC(=O)c1sc(NC(=O)CSc2nc(C)cc(C)c2C#N)c(C#N)c1C` here?
**A.** -0.401

**Q.** `CCOC(=O)C1=NOC(CNC(=O)C2=NOC(CNC(=O)c3c(-c4ccccc4Cl)noc3C)C2)C1` (stereo not given) was tested. Which z-score did it give?
**A.** -0.0386

**Q.** With `CC(=O)CSc1nnc(-c2cnccn2)n1-c1ccccc1` as the molecule, how does the z-score read?
**A.** 0.0901

**Q.** `N#CC1=C(N)Oc2n[nH]c(-c3ccc(F)cc3)c2C1c1cccc(OC(=O)N2CCOCC2)c1` (stereo not given) was tested. Which z-score did it give?
**A.** 0.312

**Q.** How did the z-score turn out when `COc1cccc(NC(=O)Cn2nc(Cc3cccnc3)c3ccccc3c2=O)c1` was run?
**A.** -0.225

**Q.** `COc1ccc(C(=O)NCC(=O)NCC2COc3ccccc3O2)cc1` (stereo not given) was tested. Which z-score did it give?
**A.** 1

**Q.** For `CC(C)(C)CC(=O)NC(=S)Nc1ccccc1C(F)(F)F`, which z-score is on record?
**A.** 0.863

**Q.** How did the z-score turn out when `COc1cc2c(cc1OC)C1=C(C#N)COCN1CC2` was run?
**A.** -0.655

**Q.** `COC(=O)c1ccc(NC(=O)CSCc2ccc(C)cc2)cc1` was tested. Which z-score did it give?
**A.** -0.584

**Q.** How did the z-score turn out when `CC(C)C(C(=O)Nc1ccc2c(c1)OCCO2)N1C(=O)c2ccccc2C1=O` (stereo not given) was run?
**A.** -0.604

**Q.** `Cc1ccc(OCCn2nc3ccccc3n2)c(C)c1` was tested. Which z-score did it give?
**A.** 0.049

**Q.** `O=C(Nc1ccc(Cl)c(Cl)c1)C1CC(=O)N(c2ccc(Br)cc2)C1` (stereo not given) was tested. Which z-score did it give?
**A.** -0.168
